# According to the supplement of paper PMC4166925:
# ± gives the standard deviation of the averaged measurements. In all, about 33,000 sequences were measured (“E-score (dimensionless, -0.5 to 0.5)”: median about -0.049, highest 2% from about 0.37 on). This is one part of the list.
# Test system: T1, PmTbr T-box DNA-binding domain (GST fusion)
# T1 sequence: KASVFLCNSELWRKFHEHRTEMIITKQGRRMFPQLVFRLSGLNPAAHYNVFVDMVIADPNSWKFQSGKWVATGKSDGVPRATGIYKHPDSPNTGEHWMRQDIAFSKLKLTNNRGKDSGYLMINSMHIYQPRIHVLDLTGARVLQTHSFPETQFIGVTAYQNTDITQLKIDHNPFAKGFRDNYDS
# Test: PBM E-score of 8-mer (E-score (dimensionless, -0.5 to 0.5)); Tbr is Tbrain of the sea star Patiria miniata (Pm) or the sea urchin Strongylocentrotus purpuratus (Sp); higher = stronger binding preference; most listed sequences are background and not binding sites
# Settings: the construct has about 5 more residues each side
# Procedure, shortened: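 Expression of GST-fused Tbr T-box DNA-binding domains, each holding the full T-box plus roughly five flanking residues, was carried out in BL21 E. coli at 20 °C, with purification by glutathione affinity chromatography. Universal Agilent arrays made double-stranded by primer extension were incubated with the protein at 200 nM in PBS (pH 7.5), then scanned and quantified. All ungapped 8-mers were scored from probe intensities, and each received an enrichment E-score from the Universal PBM Analysis Suite, averaged over duplicate arrays.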
row,Sequence,PBM E-score of 8-mer
1,ACGTCTGA,0.0062 ± 0.02
2,ACATAGAG,-0.023 ± 0.014
3,ACGGACCA,-0.341 ± 0.054
4,ACAATGCT,-0.00281 ± 0.021
5,CTGACACC,0.464 ± 0.0063
6,CAGGGTAG,0.0544 ± 0.044
7,AGTCTACG,-0.17 ± 0.11
8,AGCAACAC,0.383 ± 0.0078
9,GGTCCACC,-0.112 ± 0.0051
10,GTCCAGAC,-0.166 ± 0.033
11,AGCTATCA,0.0361 ± 0.064
12,GAAAGAAA,-0.0738 ± 0.058
13,GCTACTGA,0.0152 ± 0.032
14,CAGTGACC,0.033 ± 0.031
15,CCTGCAAA,0.0897 ± 0.028
16,GTAGGGTA,0.103 ± 0.048
17,AACGGTAA,-0.196 ± 0.017
18,ACTCCCGA,-0.177 ± 0.055
19,GTAAGCAC,0.00651 ± 0.056
20,TACAAGAA,-0.0614 ± 0.062
21,CCGGGCTA,-0.152 ± 0.051
22,CTAGTCAC,0.0813 ± 0.05
23,CACAGGTG,0.461 ± 0.0062
24,CTGCCCAA,0.0374 ± 0.083
25,GTTGACAA,0.3821 ± 0.0035

row,Sequence,PBM E-score of 8-mer
1,AACTACCC,-0.127 ± 0.0075
2,ATACGTGC,0.105 ± 0.039
3,AAGGTAGA,-0.17 ± 0.0066
4,AGATTTAA,0.0303 ± 0.02
5,AATCGTAG,-0.191 ± 0.024
6,CGTCCCAC,0.0104 ± 0.099
7,ACACGCGC,0.1959 ± 0.00046
8,CTAAGGCA,-0.047 ± 0.033
9,GAGTTGCA,0.0621 ± 0.02
10,CTCGAATA,-0.069 ± 0.011
11,CCGCACAA,0.0713 ± 0.018
12,ATGCACCG,-0.192 ± 0.0038
13,AAAGAATT,-0.166 ± 0.029
14,AAGTGGTC,-0.0639 ± 0.02
15,CTGCCATC,-0.00283 ± 0.029
16,GAGGTACC,0.0258 ± 0.047
17,ACCCGCTA,0.238 ± 0.011
18,CGACACCC,0.439 ± 0.022
19,AGAAGTAA,-0.0294 ± 0.013
20,ATTCTGTA,-0.126 ± 0.008
21,AAATTATG,-0.118 ± 0.079
22,CGCATCTA,0.0516 ± 0.011
23,CATGTCCC,-0.132 ± 0.1
24,CCGTTAAG,0.15 ± 0.027
25,GATCAGCC,-0.106 ± 0.034

row,Sequence,PBM E-score of 8-mer
1,TGCAATAA,-0.0778 ± 0.034
2,CGGTAGAA,-0.187 ± 0.086
3,ATTGACGG,0.113 ± 0.022
4,CGGATTGA,-0.148 ± 0.016
5,AACGTGAC,0.311 ± 0.0059
6,AGTTTGGG,-0.00971 ± 0.042
7,AGCGGATC,0.00512 ± 0.11
8,AATCAGTG,0.0944 ± 0.02
9,AATGATGC,-0.00771 ± 0.035
10,AGCAAAAC,0.106 ± 0.071
11,GCCCTTAC,0.00263 ± 0.059
12,ACCACCAG,-0.0603 ± 0.036
13,CTATAAGA,0.0506 ± 0.046
14,GCGGGCAC,0.118 ± 0.016
15,CAGGGGCC,-0.05 ± 0.046
16,ACTCGAGA,-0.0844 ± 0.022
17,GTCATCGA,0.152 ± 0.015
18,TCCGTCGA,-0.11 ± 0.028
19,CTCCTCAG,-0.0996 ± 0.015
20,TCGAAACA,0.0449 ± 0.078
21,CTTCCAGC,-0.0987 ± 0.018
22,TCCTGCGA,0.0825 ± 0.047
23,ATGCTTTA,-0.172 ± 0.03
24,GGCGCGCA,0.0945 ± 0.0047
25,CGGAGGTA,-0.188 ± 0.066

row,Sequence,PBM E-score of 8-mer
1,AGCTTTTC,0.0818 ± 0.069
2,AGAGGTCG,-0.0884 ± 0.068
3,CTTGTAAC,0.0484 ± 0.04
4,AGGTTACG,0.036 ± 0.069
5,CTCGAGTA,-0.107 ± 0.039
6,ACATTAGT,-0.145 ± 0.042
7,GTAAGCAA,-0.113 ± 0.031
8,CCGCAGTA,-0.0657 ± 0.021
9,TACGAGGA,-0.306 ± 0.018
10,AATACTTA,-0.153 ± 0.085
11,ATACTTAA,-0.187 ± 0.096
12,TAATTCGA,-0.0911 ± 0.044
13,CTTTTGGC,0.0565 ± 0.0061
14,AATGCAAC,-0.118 ± 0.034
15,CTGACATC,-0.0976 ± 0.035
16,ATTTCAGC,-0.136 ± 0.06
17,CAGTTTAA,-0.0321 ± 0.037
18,ACCTGGGA,0.102 ± 0.0023
19,AATGTGGA,-0.0139 ± 0.042
20,CATTCAGG,0.0358 ± 0.077
21,ACAGGCAA,-0.269 ± 0.037
22,CATAGGGC,-0.078 ± 0.024
23,GACGGGTA,-0.00653 ± 0.016
24,ATTGCCAA,0.00956 ± 0.072
25,AGAGCGGC,-0.0276 ± 0.0046

row,Sequence,PBM E-score of 8-mer
1,ATATGATC,-0.284 ± 0.078
2,GCCAAAGA,-0.093 ± 0.06
3,GTGAAGCA,0.118 ± 0.0054
4,GAATGCGC,-0.052 ± 0.077
5,CGGTGTGA,0.451 ± 0.0064
6,CCTGGGGA,0.131 ± 0.015
7,ATGACTAA,-0.173 ± 0.031
8,ACCGATGC,-0.0502 ± 0.0062
9,CAAGAGCG,-0.102 ± 0.013
10,GTAGACAC,0.337 ± 0.013
11,CAGGTAAA,-0.0189 ± 0.11
12,CACACCGA,0.193 ± 0.0051
13,GGTTGACA,0.3518 ± 0.0019
14,ACATAACT,-0.148 ± 0.022
15,GCTGAGCC,-0.116 ± 0.11
16,AAGAAAGG,-0.198 ± 0.12
17,AGCTTCAG,0.0462 ± 0.017
18,AGAAAATG,-0.0429 ± 0.12
19,CATGCGAG,0.128 ± 0.045
20,ATCGAAGC,-0.217 ± 0.051
21,ACAGGGAT,-0.169 ± 0.021
22,ACCAACCA,0.116 ± 0.0098
23,CAGGGACC,-0.32 ± 0.047
24,CGTCGTTC,0.134 ± 0.0037
25,AGCCCCAT,-0.228 ± 0.068

row,Sequence,PBM E-score of 8-mer
1,CCATGGGA,-0.0559 ± 0.0052
2,CTTCCGTC,0.0388 ± 0.046
3,CATGAGAA,-0.0999 ± 0.071
4,CCTGGGTA,-0.1 ± 0.024
5,CCATTCAC,0.231 ± 0.025
6,AAAACCCT,-0.28 ± 0.093
7,CCGGGGCA,-0.143 ± 0.072
8,CCCATTAC,-0.13 ± 0.025
9,GGGCCGAC,-0.134 ± 0.1
10,CCATCTAG,0.000375 ± 0.038
11,CGTTTACA,0.148 ± 0.017
12,GATACTGA,-0.0567 ± 0.046
13,GCTGCTAC,-0.0028 ± 0.049
14,CTTGCTAA,0.21 ± 0.087
15,ACTCGGCG,0.0119 ± 0.037
16,ACCAAGAT,-0.102 ± 0.017
17,AGTGAAGG,-0.0333 ± 0.024
18,ACCGTATG,-0.0304 ± 0.011
19,CCACCAAA,0.104 ± 0.094
20,GATGGGCA,-0.0747 ± 0.034
21,ACAGTCCA,-0.158 ± 0.022
22,TAATGCTA,-0.257 ± 0.036
23,CAAGTCAA,0.0483 ± 0.043
24,GGTTCCTA,-0.281 ± 0.071
25,ACAAGAGG,-0.108 ± 0.048

row,Sequence,PBM E-score of 8-mer
1,AGCTTGAG,-0.24 ± 0.019
2,CCGCGGCA,0.00579 ± 0.04
3,CAACCATG,0.0922 ± 0.084
4,GTGGCTCA,0.0273 ± 0.048
5,ATCTCCAG,-0.0944 ± 0.0015
6,AAAGCACC,-0.113 ± 0.045
7,ATCTGTGA,0.282 ± 0.0073
8,CGTATGAG,0.0547 ± 0.0055
9,CGCTTCCC,0.0497 ± 0.058
10,AAAATCTG,0.0885 ± 0.15
11,TAGTAGCA,-0.106 ± 0.031
12,CGTAAGGA,-0.017 ± 0.026
13,AGAGTTCG,-0.201 ± 0.018
14,GTGACGTA,0.147 ± 0.025
15,AGTTCCAG,-0.106 ± 0.02
16,CCTCTCCC,0.0427 ± 0.042
17,ATCGATGA,-0.173 ± 0.068
18,AGTGCCGC,0.169 ± 0.017
19,ACCTACGA,-0.0325 ± 0.03
20,CCAGTCGC,0.017 ± 0.041
21,CCTCAGAA,-0.0721 ± 0.042
22,CACTGATA,0.121 ± 0.011
23,CAGGCCTA,-0.235 ± 0.05
24,GATGGGAA,-0.0546 ± 0.09
25,CCCCAACA,0.152 ± 0.088

row,Sequence,PBM E-score of 8-mer
1,CCTGAAGG,-0.24 ± 0.068
2,GCACAAAC,-0.0553 ± 0.052
3,CGCCCCGA,0.112 ± 0.066
4,AGGTTAAG,-0.186 ± 0.083
5,CTAGCGAA,0.182 ± 0.037
6,AGATGAAA,-0.162 ± 0.14
7,CGGTAACG,0.148 ± 0.027
8,GGCGAGCC,-0.113 ± 0.022
9,CGGCCTAA,-0.0861 ± 0.036
10,CAGACGCA,-0.238 ± 0.016
11,CATCGATC,-0.26 ± 0.0036
12,CGGTGGTC,-0.162 ± 0.035
13,ACATTCAT,-0.0631 ± 0.014
14,AGCCAGGA,-0.061 ± 0.035
15,TCAAACCA,-0.193 ± 0.022
16,CACTCTAC,0.141 ± 0.019
17,ACCAGCAG,-0.122 ± 0.0018
18,ATCGGGCA,0.0185 ± 0.015
19,TGCAACAA,0.0749 ± 0.018
20,GGCTCACC,0.0326 ± 0.0083
21,GTATTAGA,-0.314 ± 0.011
22,GCGGAGCC,-0.238 ± 0.082
23,ATAAGATG,-0.11 ± 0.082
24,ATACCACC,0.117 ± 0.031
25,CATGCTAG,0.0119 ± 0.078

row,Sequence,PBM E-score of 8-mer
1,CATATGTC,0.0187 ± 0.011
2,CTTGCTCC,-0.105 ± 0.082
3,GTCGACTA,0.123 ± 0.0065
4,GGTTCTAC,-0.0593 ± 0.028
5,CTCTATCC,-0.168 ± 0.016
6,GCTCAAAA,0.0264 ± 0.084
7,AATTCAAG,-0.162 ± 0.095
8,ACTTGGGA,0.0708 ± 0.014
9,TTATTAAA,-0.06699 ± 0.00049
10,CTCATGCA,-0.151 ± 0.035
11,GGCATGCC,-0.311 ± 0.028
12,AGATTCGA,0.0401 ± 0.019
13,AAAGACCT,-0.102 ± 0.054
14,GATTGATA,-0.0767 ± 0.054
15,ATTTTCTC,0.108 ± 0.096
16,AGTAGCCA,-0.209 ± 0.07
17,CATGCTGC,-0.229 ± 0.023
18,CTGATAGA,-0.188 ± 0.012
19,CCCTTATA,-0.247 ± 0.0066
